Test results taken from the supplement of paper PMC3334620.
The full ranking holds about 33,000 sequences; the median of “E-score (-0.5 to 0.5)” is about -0.04, and the highest 2% start at about 0.36. The list shows a part of the results.

target: T1, Hmlalpha2 (UniProt P0CY09); assay: PBM E-score (8-mer binding enrichment) (E-score (-0.5 to 0.5)); higher = stronger / more preferred TF binding; most listed sequences are background and not binding sites; settings: protein concentration: 200 nM; construct: GST-full length
T1 sequence: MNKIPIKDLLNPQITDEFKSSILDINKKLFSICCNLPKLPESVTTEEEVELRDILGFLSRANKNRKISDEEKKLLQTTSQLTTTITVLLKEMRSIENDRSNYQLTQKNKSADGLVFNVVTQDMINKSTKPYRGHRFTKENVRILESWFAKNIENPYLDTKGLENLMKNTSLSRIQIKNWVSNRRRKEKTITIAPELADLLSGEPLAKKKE
In short: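 Yeast transcription factors carrying a GST tag, as full-length proteins or DNA-binding domains, were produced by PURExpress in vitro transcription/translation. About 100-200 nM protein was applied to universal all-10-mer Agilent arrays, double-stranded by primer extension on fresh or once-stripped slides. Bound protein was detected with fluorescent anti-GST, and scans were normalised with masliner. The Universal PBM Analysis Suite gave each ungapped eight-base word, pooled with its reverse complement, an E-score, a modified Wilcoxon-Mann-Whitney statistic.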

Row | Sequence | PBM E-score
1 | TAAAGGCA | 0.0827
2 | AACCACAT | 0.274
3 | GAAGTAGC | -0.136
4 | GATGGGGA | -0.248
5 | GGCCTTTA | -0.0983
6 | GTGGCCAA | -0.139
7 | ACCTGCGT | 0.233
8 | ATCAGTCC | -0.413
9 | GGGTTGAA | -0.0682
10 | CCTTAAGG | 0.121
11 | CGCATACG | 0.107
12 | CGCTAGGA | -0.0388
13 | CCGAGGTC | -0.331
14 | AAGTAAGC | 0.107
15 | TCTCCTCA | -0.254
16 | GGAGTCTA | -0.269
17 | ATCCTTAA | -0.0452
18 | ACCCACGA | -0.0358
19 | GTGACTAA | 0.0628
20 | GCCTAAGA | -0.106
21 | GAGTCCGA | -0.012
22 | GGCGAGTA | -0.0952
23 | ATATCTCA | 0.0665
24 | GAGGCTGA | -0.174

Row | Sequence | PBM E-score
25 | TACGAGTA | 0.185
26 | CTCGTCCC | -0.182
27 | CTCCAGCC | -0.351
28 | ACCTTTCG | -0.227
29 | ATTATTTG | 0.235
30 | CTTCCCAA | -0.102
31 | GTGGGGGA | -0.322
32 | GATATAAC | 0.26
33 | CGATTGGC | -0.143
34 | ATCACCCG | -0.269
35 | GTTCTGGA | 0.103
36 | AATGGATG | 0.0152
37 | ACAGGTAA | 0.114
38 | ACACAACA | 0.381
39 | AATGTTTC | -0.0508
40 | TCAAGGAA | -0.0123
41 | AGTGGTAT | -0.0786
42 | AATCGCCA | -0.0689
43 | TCCCGAAA | -0.104
44 | ACAAGTAT | 0.202
45 | AAGAGTGC | -0.0701
46 | AATTTGGT | 0.0967
47 | AGACTTAC | 0.12
48 | ACCACCCA | -0.145

Row | Sequence | PBM E-score
49 | ATGCTCCG | -0.297
50 | GACGCGGC | 0.128
51 | CAAGCGGC | -0.0746
52 | CTCTTTAC | 0.233
53 | ACTTGACA | 0.239
54 | CGACGTTA | 0.231
55 | ACTACGGC | -0.197
56 | TCACTTAA | 0.117
57 | GTAATACA | 0.397
58 | ACCATTAG | -0.0407
59 | AAGCCCCT | -0.253
60 | ATATTGAC | -0.0129
61 | GTTGTCAA | 0.263
62 | GCTATTAA | 0.217
63 | AGAAAACC | -0.288
64 | GGAATACC | -0.0768
65 | GCACATGA | 0.0937
66 | CCCGGTCA | -0.313
67 | ATTCTGTC | -0.137
68 | ACATAGCT | 0.219
69 | GTCTCTGA | -0.0549
70 | AATGTCAC | 0.173
71 | CGCTTTAA | 0.0665
72 | GAGAGACC | -0.262

Row | Sequence | PBM E-score
73 | TACATCTA | 0.263
74 | ACGTCCGC | 0.0186
75 | ACTCGAAA | -0.0126
76 | ACAACCGT | 0.233
77 | ACATGGCC | 0.417
78 | ACAACCTA | 0.171
79 | TTGACCAA | -0.0386
80 | ATAAACTA | 0.244
81 | CGTAACAA | 0.228
82 | CGAAGGAG | -0.176
83 | ACGAGTCG | -0.059
84 | CTGCTTAC | 0.0925
85 | ACAACAGC | 0.226
86 | AGCCCACG | -0.147
87 | ATTCCGGG | -0.0924
88 | AGGTAATC | 0.183
89 | CGCGTATC | 0.219
90 | AGTTCTGA | 0.0255
91 | AAAGGGCA | -0.206
92 | TGGGAACA | -0.00887
93 | CAACTTCA | 0.047
94 | ATAAGACA | 0.147
